Measurements from EP4186918A1 (Université de Rennes, priority 2021, dated 2023).
Values joined by “and” are separate entries in the source; they are usually repeats but may differ in a detail not shown here. Equal values may be shown once. “Also recorded” adds a separate entry of the source. Not every detail of the peptide structures is certain; ends, links or a residue may be inferred. Some entries repeat one wording, which the source may state once for all of them.

Key:
[1] = Sedimentation after polymerization (aggregative character); assay type: physicochemical
Procedure: (§1) After thawing, a pre-dilution in milli Q H2O filtered through 0.2 µm was carried out in order to obtain a solution at a concentration close to the working concentration, greater than 1.25 times. This stock solution was left to incubate for 1 hour in a water bath at 25°C, and was then assayed spectrophotometrically and adjusted to the final working concentration of 1.25 times. The polymerization was initiated by adding 1/4 of the volume of 5X fibrillation buffer (50 mM MOPS, 750 mM NaCl, pH = 7.2) for a final concentration of 1X fibrillation buffer (10 mM MOPS, 150 mM NaCl, PH = 7.2). The samples were left to incubate for 1.5-2 hours at 25°C in a water bath. The study of the polymerization by fluorimetry was carried out under the same conditions, except that the 5X polymerization buffer was supplemented with Thioflavin T (ThT) at 100 µM in order to be able to observe the fluorescence. • (a) Determination of the Aggregative Character of the Peptides. Once polymerized, the samples were ultracentrifuged at 100,000g for 5 minutes at 25°C (Beckman TL100, rotor TL-A100). The supernatants of each sample were then collected. An assay at 280 nm in triplicate of each supernatant was then carried out in the presence of 1% SDS. The concentration of the supernatant was determined using the Beer-Lambert law A = ε x 1 x C; ε (peptides) = 1450 M^-1cm^-1. The concentration of sedimentable species in the pellet was then deduced by the difference: "total concentration of the sample - concentration of free peptide present in the supernatant". • (b) Determination of the Amyloidogenic Character of the Peptides. Once the peptides have polymerized as previously indicated, 40 µL of peptides polymerized at a concentration of 400 µM and 800 µM were diluted in 360 µE of Thioflavin T (10 µM ThT, 1X MOPS) in a thermostatically controlled tank of 0.2x1 cm, to a final volume of 400 µL. The fluorescence of the sample was then measured immediately after dilution by recording a fluorescence spectrum (470 nm to 600 nm) at an excitation wavelength of 450 nm (Perkin Elmer LS 55, PM 750, slit10).

[2] = Thioflavin T fluorescence after polymerization (amyloidogenic character); assay type: physicochemical
Procedure: as §1

[3] = tested on: VQIVYK (PHF6); assay: Polymerization kinetics of 1p with selected peptides, ThT spectrofluorimetry; assay type: biochemical, human; conditions: for effect on polymerization of 1p: thresholds 50% rate, 100% fluorescence intensity; for classification of inhibitory effect (3 categories): inhibition of PHF6 aggregation; for persistence of inhibitory effect: polymerization followed for 15 hours
Procedure: (§2) After thawing, a pre-dilution of the peptides of interest in sterile water was carried out in order to obtain, for each peptide, a solution at a concentration close to the working concentration. The peptides were then left to incubate at 4°C overnight. On the day of the experiment, the peptide solutions were sonicated for 10 minutes, left to stand for one hour at room temperature, sonicated again for 10 minutes and assayed spectrophotometrically at 280 nm (ε = 1450 M^-1cm^-1). The UV spectra were previously normalized to 0 at 300 nm. The solutions were prepared at concentrations of peptides 1/4 above that desired in the end. The polymerization of VQIVYK was initiated by adding 1/4 of the volume of fibrillation buffer 5X for a final concentration of fibrillation buffer 1X (10 mM MOPS, 150 mM NaCl, pH = 7.2).
The analyses were carried out on a spectrofluorometer (LS 55 from Perkin Elmer) fitted with a 4-cell rack. Black quartz cells (0.2x1.0 cm) were used. Excitation and emission wavelengths were 450 nm and 480 nm, respectively, and the sensitivity (Photomultiplier "PM") was set at 800 V. The size of the slits was varied from 3 nm to 6 nm. Normalization of each kinetics was performed with respect to the position of the cell on the rack.
The results were first smoothed over 10 points with the "smooth" option of the KaleidaGraph software. After normalization with respect to the position of the cells in the rack, each start of kinetics was adjusted to 0 before the addition of the fibrillation buffer. Finally, the results of each kinetics were normalized relative to the fluorescence intensity of the 1p control after 100 minutes of polymerization considered to be 100%.

[4] = Garnier-Delamarche representation combining sedimentation and ThT fluorescence; assay type: physicochemical; conditions: from sedimentation and ThT fluorescence
Procedure: as §1
In order to compare the two biochemical parameters studied, the results obtained were presented in the form of a graphic representation of Garnier-Delamarche (Figure 3). In this representation, each peptide is represented as a dot, whose coordinates reflect both its amyloidogenic character and its aggregative character.

[5] = Polymerization kinetics of selected peptide alone, ThT spectrofluorimetry; assay type: physicochemical; conditions: 310 µM, ThT fluorescence
Procedure: as §2
The analyses were carried out on a spectrofluorometer (LS 55 from Perkin Elmer) fitted with a 4-cell rack. Black quartz cells (0.2x1.0 cm) were used. […]
The results were first smoothed over 10 points with the "smooth" option of the KaleidaGraph software. […] Finally, the results of each kinetics were normalized relative to the fluorescence intensity of the 1p control after 100 minutes of polymerization considered to be 100%.

[6] = 800 µM peptide, sedimentable peptide after polymerization as % of total concentration
[7] = 800 µM peptide, ThT fluorescence normalized to 1p = 100%
[8] = [1p] = 155 µM, [selected peptide] = 310 µM
[9] = 288 µM peptide (low solubility, Figure 3 legend)
[10] = 288 µM peptide (low solubility, Figure 3 legend), normalized to 1p
[11] = [1p] = 155 µM, [selected peptide] = 310 µM, [ThT] = 32 µM

Substance	% sedimentation [1, 6]	% fluorescence [2, 7]	amyloidogenic and aggregative character [4]	further results
Ac-VVIKYQ-NH2 [3tp, VVIKYQ]	48%	0.9%		
Ac-VVIQYK-NH2 [2tp, VVIQYK]	58%	2.9%		
Ac-VKIQYV-NH2 [4tp, VKIQYV]	0%	2%	weakly amyloidogenic and weakly aggregative	category of polymerization kinetics of 1p in presence of peptide [3, 8]: slow compared to 1p alone and which have a lower fluorescence intensity; effect on polymerization of 1p [3, 8]: marked inhibitory effect; classification of inhibitory effect (3 categories) [3]: with a weak inhibitory effect; persistence of inhibitory effect [3]: the inhibitory effect persisted; polymerization of peptide alone [5]: do not polymerize on their own
Ac-YQVKIV-NH2 [16p, YQVKIV]				% sedimentation [1, 9]: 94%; % fluorescence [2, 10]: 1.7%
Ac-IKQVYV-NH2 [5p, IKQVYV]	5%	1.1%	weakly amyloidogenic and weakly aggregative	category of polymerization kinetics of 1p in presence of peptide [3, 8]: generally follow the kinetics of 1p alone; effect on polymerization of 1p [3, 8]: marked inhibitory effect; classification of inhibitory effect (3 categories) [3]: with a weak inhibitory effect
Ac-YIVVQK-NH2 [13p, YIVVQK]	0%	2.7%	weakly amyloidogenic and weakly aggregative	category of polymerization kinetics of 1p in presence of peptide [3, 8]: generally follow the kinetics of 1p alone; classification of inhibitory effect (3 categories) [3]: without any inhibitory effect
Ac-KVQIVY-NH2 [10p, KVQIVY]	63%	3.2%		
Ac-QKYIVV-NH2 [8p, QKYIVV]	0%	1.9%		category of polymerization kinetics of 1p in presence of peptide [3, 8]: very high rate and intensity of fluorescence; classification of inhibitory effect (3 categories) [3]: without any inhibitory effect
Ac-VQVKYI-NH2 [21p, VQVKYI]	33%	19.9%	amyloidogenic and poorly aggregative	
Ac-QVIKYV-NH2 [23p, QVIKYV]	5%	0.8%	weakly amyloidogenic and weakly aggregative	category of polymerization kinetics of 1p in presence of peptide [3, 8]: very high rate and intensity of fluorescence; fluorescence intensity at 100 minutes, % of 1p alone [3, 11]: 161.7%; polymerization rate (speed) of 1p in presence of peptide, % of 1p alone [3, 11]: 65%; effect on polymerization of 1p [3, 8]: non-inhibitory peptide; classification of inhibitory effect (3 categories) [3]: without any inhibitory effect
Ac-YQVVIK-NH2 [9tp, YQVVIK]				% sedimentation [1, 9]: 86%; % fluorescence [2, 10]: 7.9%
Ac-VQIKYV-NH2 [0tp, VQIKYV]	0%	10.7%		
Ac-IQVVYK-NH2 [7tp, IQVVYK]		453.6%	amyloidogenic and aggregative	
Ac-VKVIYQ-NH2 [7p, VKVIYQ]	86%	1.3%		
Ac-KVQYVI-NH2 [14p, KVQYVI]	1%	4.4%	weakly amyloidogenic and weakly aggregative	category of polymerization kinetics of 1p in presence of peptide [3, 8]: generally follow the kinetics of 1p alone; classification of inhibitory effect (3 categories) [3]: without any inhibitory effect
Ac-QKVYIV-NH2 [19p, QKVYIV]	76%	0.8%	vice versa	

Substance	% sedimentation [1, 6]	% fluorescence [2, 7]	amyloidogenic and aggregative character [4]	further results
Ac-IYVQKV-NH2 [9p, IYVQKV]	1%	2.1%	weakly amyloidogenic and weakly aggregative	category of polymerization kinetics of 1p in presence of peptide [3, 8]: generally follow the kinetics of 1p alone; classification of inhibitory effect (3 categories) [3]: without any inhibitory effect
Ac-VQYVIK-NH2 [5tp, VQYVIK]	26%		amyloidogenic and aggregative	
Ac-VQKIYV-NH2 [4p, VQKIYV]	1%	0.8%	weakly amyloidogenic and weakly aggregative	category of polymerization kinetics of 1p in presence of peptide [3, 8]: generally follow the kinetics of 1p alone; fluorescence intensity at saturation plateau, % of 1p alone [3, 11]: 80%; polymerization rate (speed) of 1p in presence of peptide, % of 1p alone [3, 11]: 50%; effect on polymerization of 1p [3, 8]: inhibits the polymerization of 1p; also recorded: marked inhibitory effect; classification of inhibitory effect (3 categories) [3]: with a weak inhibitory effect
Ac-VQVYKI-NH2 [22p, VQVYKI]	34%	3%		
Ac-IQYVVK-NH2 [8tp, IQYVVK]	78%			
Ac-VVQKYI-NH2 [6p, VVQKYI]	14%	0.2%	weakly amyloidogenic and weakly aggregative; also recorded: very poorly amyloidogenic	
Ac-KYIQVV-NH2 [2p, KYIQVV]	67%	2.8%		
Ac-YQVIVK-NH2 [17p, YQVIVK]	~ 95% and 95%	2.3%		
Ac-VKVYIQ-NH2 [11p, VKVYIQ]	6%	25%		
Ac-KYVIQV-NH2 [15p, KYVIQV]	71%	3.9%		
Ac-QKVVYI-NH2 [18p, QKVVYI]	51%	6.8%		
Ac-KQIVYV-NH2 [20p, KQIVYV]	75%	1.3%		
Ac-VQVIYK-NH2 [12p, VQVIYK]	14%	82% and 81.6%		
Ac-VKYQVI-NH2 [3p, VKYQVI]	18%	0.2%	very poorly amyloidogenic	
Ac-VKIVYQ-NH2 [1tp, VKIVYQ]	0%	0.9%	weakly amyloidogenic and weakly aggregative	category of polymerization kinetics of 1p in presence of peptide [3, 8]: slow compared to 1p alone and which have a lower fluorescence intensity; fluorescence intensity at 100 minutes, % of 1p alone [3, 11]: 23.5%; polymerization rate (speed) of 1p in presence of peptide, % of 1p alone [3, 11]: 12%; effect on polymerization of 1p [3, 8]: inhibitory peptide; also recorded: clearly inhibited; also recorded: marked inhibitory effect; classification of inhibitory effect (3 categories) [3]: with a strong inhibitory effect; persistence of inhibitory effect [3]: the inhibitory effect persisted; polymerization of peptide alone [5]: do not polymerize on their own
